Data on two molecules can be found in patent publication US20230235080A1, “TROPHOBLAST CELL-SURFACE ANTIGEN-2 (TROP-2) ANTIBODIES” (Bionecure Therapeutics, Inc., priority 2020, published 2023).

Entries after “also recorded” stand apart in the source; their conditions may differ.

In experiment [1] the target is T1, human Trop-2ECD-6His (Homo sapiens, UniProt P09758).
T1 construct: made in house; host or cells: human 293 cell line
T1 sequence (P09758 with tags, fused parts or gaps): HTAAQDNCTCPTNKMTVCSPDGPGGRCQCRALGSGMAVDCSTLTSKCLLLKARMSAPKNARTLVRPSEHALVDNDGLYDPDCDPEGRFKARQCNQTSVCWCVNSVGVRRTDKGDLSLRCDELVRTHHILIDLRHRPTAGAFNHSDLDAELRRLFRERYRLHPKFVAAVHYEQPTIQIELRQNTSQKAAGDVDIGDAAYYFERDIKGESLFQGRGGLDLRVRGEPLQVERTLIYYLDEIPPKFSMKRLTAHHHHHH
The experiment can be described thus: Octet Bio-Layer Interferometry kinetics assay. In kind it is binding. The settings on record: for binding affinity to huTrop-2 compared to benchmark hRS7: in words, Octet kinetics assay. The source says: The binding affinity of human IgGs to their antigens can be determined by Octet system based on Bio-Layer Interferometry (BLI) technique. BLI is a layer of molecules attached to the tip of an optic fiber which creates an interference pattern at the detector, any change in the number of molecules bound causes a measured shift in the pattern. Octet system enables real-time analysis for determination of affinity and kinetics from biomolecular interactions in 96-well microplates. Briefly, target antigen can be diluted and loaded to a 96-well microplate. Antibody is then diluted and added to the assigned wells. The plate is put in the Octet system and assay is started. The data can be analyzed using the Octet Data Acquisition Software (fortebio data analysis 10.0) to calculate an association rate constant Kon, a dissociation rate constant Koff, and a dissociation constant Kd (Kd = Koff/Kon).
The binding affinity of the purified anti-Trop-2 IgGs to human Trop-2 protein were determined by Octet system based on Bio-Layer Interferometry (BLI) technique. BLI is a layer of molecules attached to the tip of an optic fiber which creates an interference pattern at the detector, any change in the number of molecules bound causes a measured shift in the pattern. Octet system enables real-time analysis for determination of affinity and kinetics from biomolecular interactions in 96-well microplates. Briefly, Trop-2 antigen (human Trop-2ECD-6His) was diluted to concentrations of 50, 25, 12.5, 6.25, and 3.125 nM, and loaded to a 96-well microplate. A1X4 or A1,2X4 antibody was diluted and added to the assigned wells at a final concentration 8 µg/ml. The plate was put in the Octet system and assay was started. The data was analyzed using the Octet Data Acquisition Software (fortebio data analysis 10.0) to calculate an association rate constant Kon, a dissociation rate constant Koff, and a dissociation constant Kd (Kd = Koff/Kon).

The next experiment deals with cynomolgus Trop-2-His. The experiment is described as follows: Cross-reactivity ELISA, cynomolgus Trop-2. In kind it is binding. The conditions noted are these: plate coated with 1 µg/mL antigen. How it is done: (§1) Cross-reactivity of chimeric IgG #118-2-5 and #125-1-5 to the Trop-2 antigens from different species was assessed by ELISA. In this experiment, a microtiter plate was coated overnight at 4° C. with 50 µL/well of 1 µg/mL human Trop-2ECD-6His, mouse Trop-2-His, cynomolgus Trop-2-His, human EPCAM-His, and a non-related protein. The plate was washed and blocked for 1 hr at 37° C., and then washed with wash buffer. Purified chimeric IgGs appropriately diluted in PBS were added to wells and incubated for 1 hr at 37° C. After washing, bound antibodies were detected using HRP-conjugated goat-anti-human IgG Ab. Color development and absorbance at OD450 nm were read. A non-specific mock mouse IgG and a non-specific mock human IgG were included as the negative controls, while anti-His antibody was used as a positive control.
(§2) The cross-reactivity of purified IgGs to the Trop-2 antigens from different species was tested by ELISA. In this experiment, a microtiter plate was coated overnight at 4° C. with 50 µL/well of 1 µg/mL human Trop-2ECD-6His, mouse Trop-2-His, cynomolgus Trop-2-His, human EPCAM-His, and a non-related protein. The plate was washed and blocked for 1 hr at 37° C., and then washed with wash buffer. […] After washing, bound antibodies were detected using HRP-conjugated goat-anti-human IgG antibody. Color development and absorbance at OD450 nm were read. […]

Another experiment deals with non-related protein. The experiment is described as follows: Cross-reactivity ELISA, non-related protein. It counts as binding. The settings on record: plate coated with 1 µg/mL protein. How it is done: as §1, §2
The subject of experiment [2] is Trop-2 postive breast cancer cells MDA-MB-468. The experiment can be described thus: Internalization of humanized anti-Trop-2 antibodies by flow cytometry (Example 7). The conditions noted are these: in words; 400, 1000, 3000, 10000 ng/ml; 2 hours at 37° C. It counts as cell-based, human. How it is done:
Internalizationi and degradation of anti-Trop-2 antibodies was measured by flow cytometry. In this study, fluorescent-conjugated secondary antibodies were used to detect the primary antibodies left on after internalization.
Trop-2 postive breast cancer cells MDA-MB-468 were seeded in 1 × 10^5 cell/well. Next, either hRS7, or A1X4, or A1,2X4 antibody was added to cells in FACS buffer at concentrations of 400, 1000, 3000, or 10000 ng/ml, respectively, and incubated for 30 minutes at 4° C. After incubation, the cells were washed three times with FACS buffer to removed unbound antibody. The cells were then incubated at 37° C. with 5% CO2 for antibody internalization. After 2 hours, the cells were dissociated with Trypsin and stained with fluorescent-conjugated goat anti-human IgG secondary antibodies for 30 minutes on ice in dark before being analyzed using Beckman flow cytometry system. The fluorescent intensity and cell binding percentage at each time point were analyzed by Beckman flow cytometric software. The amount of anti-Trop-2 antibodies internalized into cells at each concentration was determined using the following formula: % internalization rate = 100 × (MFI4°C- MFI37°C) / MFI4°C

For another experiment, the target named is T2, mouse Trop-2-His (Mus musculus, UniProt Q8BGV3).
T2 sequence (Q8BGV3 25-317): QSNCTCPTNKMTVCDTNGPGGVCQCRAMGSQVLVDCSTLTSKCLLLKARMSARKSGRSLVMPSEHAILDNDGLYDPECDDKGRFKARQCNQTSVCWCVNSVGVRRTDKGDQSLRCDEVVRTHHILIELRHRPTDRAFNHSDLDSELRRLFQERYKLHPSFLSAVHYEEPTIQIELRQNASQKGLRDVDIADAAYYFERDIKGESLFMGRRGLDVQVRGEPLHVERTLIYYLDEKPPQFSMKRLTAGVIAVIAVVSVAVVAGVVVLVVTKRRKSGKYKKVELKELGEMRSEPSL
The experiment can be described thus: Cross-reactivity ELISA, mouse Trop-2. The conditions noted are these: plate coated with 1 µg/mL antigen. It counts as binding. How it is done:
as §1, §2

Experiment [3] deals with T1, human Trop-2ECD-6His. The experiment is described as follows: Cross-reactivity ELISA, human Trop-2. In kind it is binding. The conditions noted are these: plate coated with 1 µg/mL antigen. On the procedure:
as §1, §2

The target of a further experiment is T3, human EPCAM-His (Homo sapiens, UniProt P16422).
T3 sequence (P16422 24-314): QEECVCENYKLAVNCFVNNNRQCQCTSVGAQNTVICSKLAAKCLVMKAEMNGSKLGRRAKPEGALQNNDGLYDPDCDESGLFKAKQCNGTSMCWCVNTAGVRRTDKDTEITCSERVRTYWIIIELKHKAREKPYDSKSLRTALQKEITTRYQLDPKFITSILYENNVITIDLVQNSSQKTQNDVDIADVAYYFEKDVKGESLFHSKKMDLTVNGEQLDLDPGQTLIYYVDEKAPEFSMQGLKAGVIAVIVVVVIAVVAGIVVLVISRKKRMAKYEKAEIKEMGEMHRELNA
The experiment can be described thus: Cross-reactivity ELISA, human EPCAM. It counts as binding. The conditions noted are these: plate coated with 1 µg/mL antigen. On the procedure:
as §1, §2

B1: A1X4: humanized IgG, variable regions SEQ ID NOs: 29/37; HC SEQ ID NO: 53, LC SEQ ID NO: 54 (antibody)
heavy: QVQLQESGPGLVKPSETLSLTCTVSGFSLTSYGVNWIRQPPGKGLEWIGVMWAGGSTNYNSALMSRVTISVDTSKNQFSLKLSSVTAADTAVYYCARDENWDGAWFAYWGQGTLVTVSSASTKGPSVFPLAPSSKSTSGGTAALGCLVKDYFPEPVTVSWNSGALTSGVHTFPAVLQSSGLYSLSSVVTVPSSSLGTQAYICNVNHKPSNTKVDKKVG[left out - human IgG1 Fc with K334R T359A (EU numbers)]
light: DIVMTQSPDSLAVSLGERATINCKSSQSLLNSGTRKNYLAWYQQKPGQPPKLLISWASSRESGVPDRFSGSGSGTDFTLTISSLQAEDVAVYYCKQSYNLFTFGGGTKVEIKRTVAAPSVFIFPPSDEQLKSGTASVVCLLNNFYPREAKVQWKVDNALQSGNSQESVTEQDSKDSTYSLSSTLTLSKADYEKHKVYACEVTHQGLSSPVTKSFNRGEC
B1: the dissociation constant (Kd) with human Trop-2ECD-6His [1] (Table 14, antibody 8 µg/ml, antigen 3.125-50 nM) came to 2.11 nM. Moreover, the “Koff(⅟S)” value in the experiment with human Trop-2ECD-6His [1] (Table 14, dissociation rate constant) is 5.69E-04 ⅟S. Besides, the “binding affinity to huTrop-2 compared to benchmark hRS7” value with human Trop-2ECD-6His [1] is “moderate binding affinity”. The “binding to cynomolgus Trop-2 antigen (ELISA, OD450 nm)” value in the experiment with cynomolgus Trop-2-His is listed as “able to bind”. Further, in the experiment with non-related protein, the “recognition of the non-related protein (ELISA, OD450 nm)” value was “did not recognize”. For the same molecule, the “internalization rate (FIG. 4)” value in experiment [2] is “the most efficient one; also recorded: higher internalization rate compared to benchmark antibody hRS7”. For the same molecule, the “recognition of mouse Trop-2 (ELISA, OD450 nm)” value with mouse Trop-2-His is listed as “did not recognize”. For the same molecule, the “binding to human Trop-2 antigen (ELISA, OD450 nm)” value in the experiment with human Trop-2ECD-6His [3] was “able to bind”. Also, the “recognition of hEPCAM (ELISA, OD450 nm)” value with human EPCAM-His was “did not recognize”.

B2: A1,2X4: humanized IgG, variable regions SEQ ID NOs: 40/37; HC SEQ ID NO: 51, LC SEQ ID NO: 52 (antibody)
heavy: QVQLQESGPGLVKPSETLSLTCTVSGFSLTSYGVNWIRQPPGKGLEWIGVMWAGGSTNYNSALMSRLTISKDTSKNQFSLKLSSVTAADTAVYYCARDENWDGAWFAYWGQGTLVTVSSASTKGPSVFPLAPSSKSTSGGTAALGCLVKDYFPEPVTVSWNSGALTSGVHTFPAVLQSSGLYSLSSVVTVPSSSLGTQAYICNVNHKPSNTKVDKKVG[left out - human IgG1 Fc with K334R T359A (EU numbers)]
light: DIVMTQSPDSLAVSLGERATINCKSSQSLLNSGTRKNYLAWYQQKPGQPPKLLISWASSRESGVPDRFSGSGSGTDFTLTISSLQAEDVAVYYCKQSYNLFTFGGGTKVEIKRTVAAPSVFIFPPSDEQLKSGTASVVCLLNNFYPREAKVQWKVDNALQSGNSQESVTEQDSKDSTYSLSSTLTLSKADYEKHKVYACEVTHQGLSSPVTKSFNRGEC
B2: the “binding affinity to huTrop-2 compared to benchmark hRS7” value with human Trop-2ECD-6His [1] is on record as “moderate binding affinity”. Also, in the experiment with cynomolgus Trop-2-His, the “binding to cynomolgus Trop-2 antigen (ELISA, OD450 nm)” value is recorded as “able to bind”. Also, in the experiment with non-related protein, the “recognition of the non-related protein (ELISA, OD450 nm)” value is “did not recognize”. Moreover, the “internalization rate (FIG. 4)” value in experiment [2] was “higher internalization rate compared to benchmark antibody hRS7”. Moreover, the “recognition of mouse Trop-2 (ELISA, OD450 nm)” value with mouse Trop-2-His was “did not recognize”. In the experiment with human Trop-2ECD-6His [3], the “binding to human Trop-2 antigen (ELISA, OD450 nm)” value is “able to bind”. The “recognition of hEPCAM (ELISA, OD450 nm)” value with human EPCAM-His is listed as “did not recognize”.
